These results are taken from the supplement of paper PMC11876631.

B1: gltX I57W (protein)
chain: MKIKTRFAPSPTGYLHVGGARTALYSWLFARNHGGEFVLRIEDTDLERSTPEAIEAWMDGMNWLSLEWDEGPYYQTKRFDRYNAVIDQMLEEGTAYKCYCSKERLEALREEQMAKGEKPRYDGRCRHSHEHHADDEPCVVRFANPQEGSVVFDDQIRGPIEFSNQELDDLIIRRTDGSPTYNFCVVVDDWDMEITHVIRGEDHINNTPRQINILKALKAPVPVYAHVSMINGDDGKKLSKRHGAVSVMQYRDDGYLPEALLNYLVRLGWSHGDQEIFTREEMIKYFTLNAVSKSASAFNTDKLLWLNHHYINALPPEYVATHLQWHIEQENIDTRNGPQLADLVKLLGERCKTLKEMAQSCRYFYEDFAEFDADAAKKHLRPVARQPLEVVRDKLAAITDWTAENVHHAIQATADELEVGMGKVGMPLRVAVTGAGQSPALDVTVHAIGKTRSIERINKALDFIAERENQQ
B2: gltX M357D (protein)
chain: B1 chain with W57I, M357D
B3: gltX L306Q (protein)
chain: B1 chain with W57I, L306Q
B4: gltX M357P (protein)
chain: B1 chain with W57I, M357P
B5: gltX I57P (protein)
chain: B1 chain with W57P
B6: gltX M357A (protein)
chain: B1 chain with W57I, M357A
B7: gltX L306W (protein)
chain: B1 chain with W57I, L306W
B8: gltX L306A (protein)
chain: B1 chain with W57I, L306A
B9: glyA F302A (protein)
chain: MLKREMNIADYDAELWQAMEQEKVRQEEHIELIASENYTSPRVMQAQGSQLTNKYAEGYPGKRYYGGCEYVDIVEQLAIDRAKELFGADYANVQPHSGSQANFAVYTALLEPGDTVLGMNLAHGGHLTHGSPVNFSGKLYNIVPYGIDATGHIDYADLEKQAKEHKPKMIIGGFSAYSGVVDWAKMREIADSIGAYLFVDMAHVAGLVAAGVYPNPVPHAHVVTTTTHKTLAGPRGGLILAKGGSEELYKKLNSAVFPGGQGGPLMHVIAGKAVALKEAMEPEFKTYQQQVAKNAKAMVEVALERGYKVVSGGTDNHLFLVDLVDKNLTGKEADAALGRANITVNKNSVPNDPKSPFVTSGIRVGTPAITRRGFKEAEAKELAGWMCDVLDSINDEAVIERIKGKVLDICARYPVYA
B10: glyA V223Q (protein)
chain: B9 chain with V223Q, A302F
B11: glyA V223A (protein)
chain: B9 chain with V223A, A302F

Substitutions are numbered along the chain they refer to. Names may count otherwise. ± gives the standard deviation of the averaged measurements. Laboratory Escherichia coli strains with one amino-acid change in an essential protein, pooled on minimal glucose agar with carbenicillin or gentamicin at twice the control MIC (plus kanamycin and chloramphenicol for the plasmids), 48 h. Fold change of barcode share against drug-free plates; higher = less susceptible. Active = above 20 in both replicates (the paper's putatively resistant). '<' = one read or none on drug, '>' = one read or none on a drug-free plate. Shares are relative, so most strains fall below 1 when a few take over. Listed are strains with at least 15 reads on both drug-free plates, and hits; most hits rest on fewer reference reads. Replicate rank correlation about 0.5. Edits are read from barcodes.

The first series addresses Escherichia coli (laboratory strain). Kind of series: barcode share on antibiotic plates over drug-free plates; higher = less susceptible. To be noted: antibiotic: carbenicillin; 2× MIC (3.1 µg/mL). Here is the method: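 A pool of E. coli strains, each edited to carry one amino-acid change in an essential protein, was grown for 48 h on minimal glucose agar with or without antibiotic; strain barcodes were sequenced; mean of two replicates.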
On to B1, for which the “fold change of barcode share” value turned out to be 0.481 ± 0.18. For the protein B2, the “fold change of barcode share” value worked out at 0.233 ± 0.025. Regarding B3, the “fold change of barcode share” value was determined as 0.184 ± 0.038. B4: the “fold change of barcode share” value was 0.207 ± 0.036. In the case of B5, the “fold change of barcode share” value was determined as 0.232 ± 0.0068. B6: the “fold change of barcode share” value was 0.205 ± 0.087. Consider B7, for which the “fold change of barcode share” value came out at 0.204 ± 0.0068. On to B8, for which the “fold change of barcode share” value turned out to be 0.239 ± 0.14. Take B9: the “fold change of barcode share” value came to 0.418 ± 0.025. For the protein B10, the “fold change of barcode share” value is 0.888 ± 0.075. B11: the “fold change of barcode share” value is 0.279 ± 0.16.

The series is the same for the next values; noted with them: antibiotic: gentamicin; 2× MIC (MIC 0.45 µg/mL).
As for B1, the “fold change of barcode share” value was less than 0.0107. With B2, the “fold change of barcode share” value was less than 0.00481. For B3, the “fold change of barcode share” value is less than 0.00695. With B4, the “fold change of barcode share” value is less than 0.00607. Take B5: the “fold change of barcode share” value came to 0.176 ± 0.22. In the case of B6, the “fold change of barcode share” value was less than 0.00861. As to B7, the “fold change of barcode share” value worked out at 0.00624 ± 0.0024. Consider B8, for which the “fold change of barcode share” value is 0.00569 ± 0.0042. With B11, the “fold change of barcode share” value was less than 0.00596.
